According to the supplement of paper PMC8728848:
The list shows a part of the results.

What was measured:
Assay in all cases: glycan array binding signal (z-score within array); higher = stronger binding
Settings in all cases: glycan notation: IUPAC condensed, linker removed
[1] = target: Gal(b1-4)GlcNAc(b1-3)[GlcNAc(b1-6)]Gal(b1-4)GlcNAc
Summary of the method: (§1)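 Glycan array data came from 3228 arrays in the Consortium for Functional Glycomics database, and only arrays with an available protein sequence were kept. Glycan names were put into IUPAC-condensed notation, and columns mapping to the same glycan were averaged. The binding signal is a within-array Z-score, averaged across arrays of one protein sequence run at different concentrations or buffers and across linkers. A negative Z-score can be read as non-binding.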

[2] = target: Gal(b1-4)GlcNAc(b1-6)Gal(b1-4)GlcNAc
Summary of the method: as §1

[3] = target: Gal(b1-4)GlcNAc(b1-6)Gal(b1-4)GlcNAc(b1-6)GalNAc
Summary of the method: as §1

[4] = target: Gal(b1-4)GlcNAc(b1-6)GalNAc
Summary of the method: as §1

[5] = target: Gal(b1-4)GlcNAc(b1-6)[Gal(b1-3)]GalNAc
Summary of the method: as §1

[6] = target: Gal3S(b1-3)GalNAc
Summary of the method: as §1

[7] = target: Gal3S(b1-3)GlcNAc
Summary of the method: as §1

[8] = target: Gal3S(b1-3)[Fuc(a1-4)]GlcNAc
Summary of the method: as §1

[9] = target: Gal3S(b1-4)Glc
Summary of the method: as §1

[10] = target: Gal3S(b1-4)Glc6S
Summary of the method: as §1

[11] = target: Gal3S(b1-4)GlcNAc
Summary of the method: as §1

[12] = target: Gal3S(b1-4)GlcNAc6S
Summary of the method: as §1

[13] = target: Gal3S(b1-4)[Fuc(a1-3)]Glc
Summary of the method: as §1

[14] = target: Gal3S4S(b1-4)GlcNAc
Summary of the method: as §1

[15] = target: Gal3S6S(b1-4)GlcNAc
Summary of the method: as §1

[16] = target: Gal3S6S(b1-4)GlcNAc6S
Summary of the method: as §1

[17] = target: Gal4S(b1-4)GlcNAc
Summary of the method: as §1

[18] = target: Gal4S6S(b1-4)GlcNAc
Summary of the method: as §1

[19] = target: Gal6S(b1-4)Glc
Summary of the method: as §1

[20] = target: Gal6S(b1-4)Glc6S
Summary of the method: as §1

[21] = target: Gal6S(b1-4)GlcNAc
Summary of the method: as §1

[22] = target: Gal6S(b1-4)GlcNAc6S
Summary of the method: as §1

[23] = target: GalNAc(a1-3)Gal
Summary of the method: as §1

[24] = target: GalNAc(a1-3)GalNAc
Summary of the method: as §1

[25] = target: GalNAc(b1-3)Gal
Summary of the method: as §1

[26] = target: GalNAc(b1-3)Gal(a1-4)Gal(b1-4)GlcNAc
Summary of the method: as §1

[27] = target: GalNAc(b1-3)Gal(a1-4)Gal(b1-4)GlcNAc(b1-3)Gal(b1-4)Glc
Summary of the method: as §1

[28] = target: GalNAc(b1-3)GalNAc
Summary of the method: as §1

[29] = target: GalNAc(b1-4)GlcNAc
Summary of the method: as §1

[30] = target: GalNAc(b1-4)GlcNAc(b1-2)Man(a1-3)[GalNAc(b1-4)GlcNAc(b1-2)Man(a1-6)]Man(b1-4)GlcNAc(b1-4)GlcNAc
Summary of the method: as §1

[31] = target: Glc(a1-4)Glc
Summary of the method: as §1

[32] = target: Glc(a1-6)Glc(a1-6)Glc
Summary of the method: as §1

[33] = target: Glc(b1-4)Glc
Summary of the method: as §1

[34] = target: Glc(b1-6)Glc
Summary of the method: as §1

[35] = target: GlcA(b1-3)Gal
Summary of the method: as §1

[36] = target: GlcA(b1-3)GlcNAc
Summary of the method: as §1

[37] = target: GlcA(b1-6)Gal
Summary of the method: as §1

[38] = target: GlcNAc(a1-3)Gal(b1-4)GlcNAc
Summary of the method: as §1

[39] = target: GlcNAc(a1-4)Gal(b1-3)GlcNAc
Summary of the method: as §1

[40] = target: GlcNAc(a1-4)Gal(b1-4)GalNAc
Summary of the method: as §1

[41] = target: GlcNAc(a1-4)Gal(b1-4)GlcNAc
Summary of the method: as §1

[42] = target: GlcNAc(a1-4)Gal(b1-4)GlcNAc(b1-3)Gal(b1-4)Glc
Summary of the method: as §1

[43] = target: GlcNAc(a1-4)Gal(b1-4)GlcNAc(b1-3)Gal(b1-4)GlcNAc
Summary of the method: as §1

[44] = target: GlcNAc(a1-4)Gal(b1-4)GlcNAc(b1-3)Gal(b1-4)GlcNAc(b1-3)Gal(b1-4)GlcNAc
Summary of the method: as §1

[45] = target: GlcNAc(a1-4)Gal(b1-4)GlcNAc(b1-3)Gal(b1-4)[Fuc(a1-3)]GlcNAc(b1-3)Gal(b1-4)[Fuc(a1-3)]GlcNAc
Summary of the method: as §1

[46] = target: GlcNAc(a1-6)Gal(b1-4)GlcNAc
Summary of the method: as §1

[47] = target: GlcNAc(b1-2)Gal(b1-3)GalNAc
Summary of the method: as §1

[48] = target: GlcNAc(b1-2)Man(a1-3)[GlcNAc(b1-2)Man(a1-6)]Man(b1-4)GlcNAc(b1-4)GlcNAc
Summary of the method: as §1

[49] = target: GlcNAc(b1-2)Man(a1-3)[GlcNAc(b1-2)Man(a1-6)]Man(b1-4)GlcNAc(b1-4)[Fuc(a1-6)]GlcNAc
Summary of the method: as §1

[50] = target: GlcNAc(b1-3)Gal
Summary of the method: as §1

[51] = target: GlcNAc(b1-3)Gal(b1-3)GalNAc
Summary of the method: as §1

[52] = target: GlcNAc(b1-3)Gal(b1-4)Glc
Summary of the method: as §1

[53] = target: GlcNAc(b1-3)Gal(b1-4)GlcNAc
Summary of the method: as §1

[54] = target: GlcNAc(b1-3)Gal(b1-4)GlcNAc(b1-3)Gal(b1-4)GlcNAc
Summary of the method: as §1

[55] = target: GlcNAc(b1-3)GalNAc
Summary of the method: as §1

[56] = target: GlcNAc(b1-3)Man
Summary of the method: as §1

[57] = target: GlcNAc(b1-3)[GlcNAc(b1-4)][GlcNAc(b1-6)]GlcNAc
Summary of the method: as §1

[58] = target: GlcNAc(b1-3)[GlcNAc(b1-6)]Gal(b1-4)GlcNAc
Summary of the method: as §1

[59] = target: GlcNAc(b1-3)[GlcNAc(b1-6)]GalNAc
Summary of the method: as §1

[60] = target: GlcNAc(b1-4)Gal(b1-4)GlcNAc
Summary of the method: as §1

B1: Sialidase (Vibrio cholerae), P37060 (protein)
chain: GAMALFDYNATGDTEFDSPAKQGWMQDNTNNGSGVLTNADGMPAWLVQGIGGRAQWTYSLSTNQHAQASSFGWRMTTEMKVLSGGMITNYYANGTQRVLPIISLDSSGNLVVEFEGQTGRTVLATGTAATEYHKFELVFLPGSNPSASFYFDGKLIRDNIQPTASKQNMIVWGNGSSNTDGVAAYRDIKFEIQGDALNGSMALFDYNATGDTEFDSPAKQGWMQDNTNNGSGVLTNADGMPAWLVQGIGGRAQWTYSLSTNQHAQASSFGWRMTTEMKVLSGGMITNYYANGTQRVLPIISLDSSGNLVVEFEGQTGRTVLATGTAATEYHKFELVFLPGSNPSASFYFDGKLIRDNIQPTASKQNMIVWGNGSSNTDGVAAYRDIKFEIQGDLQALGMALFDYNATGDTEFDSPAKQGWMQDNTNNGSGVLTNADGMPAWLVQGIGGRAQWTYSLSTNQHAQASSFGWRMTTEMKVLSGGMITNYYANGTQRVLPIISLDSSGNLVVEFEGQTGRTVLATGTAATEYHKFELVFLPGSNPSASFYFDGKLIRDNIQPTASKQNMIVWGNGSSNTDGVAAYRDIKFEIQGD
glycan array binding signal (z-score) [1]: 0.116 | glycan array binding signal (z-score) [2]: -0.499 | glycan array binding signal (z-score) [3]: -0.211 | glycan array binding signal (z-score) [4]: -0.467 | glycan array binding signal (z-score) [5]: -0.26 | glycan array binding signal (z-score) [6]: -0.567 | glycan array binding signal (z-score) [7]: -0.228 | glycan array binding signal (z-score) [8]: -0.553 | glycan array binding signal (z-score) [9]: -0.25 | glycan array binding signal (z-score) [10]: 0.098 | glycan array binding signal (z-score) [11]: -0.016 | glycan array binding signal (z-score) [12]: 0.248 | glycan array binding signal (z-score) [13]: 0.04 | glycan array binding signal (z-score) [14]: -0.635 | glycan array binding signal (z-score) [15]: -0.152 | glycan array binding signal (z-score) [16]: 1.12 | glycan array binding signal (z-score) [17]: -0.661 | glycan array binding signal (z-score) [18]: 0.765 | glycan array binding signal (z-score) [19]: -0.342 | glycan array binding signal (z-score) [20]: 0.513 | glycan array binding signal (z-score) [21]: -0.619 | glycan array binding signal (z-score) [22]: 0.552 | glycan array binding signal (z-score) [23]: 0 | glycan array binding signal (z-score) [24]: -0.501 | glycan array binding signal (z-score) [25]: -0.591 | glycan array binding signal (z-score) [26]: -0.421 | glycan array binding signal (z-score) [27]: 0.072 | glycan array binding signal (z-score) [28]: -0.52 | glycan array binding signal (z-score) [29]: -0.453 | glycan array binding signal (z-score) [30]: -0.622 | glycan array binding signal (z-score) [31]: -0.339 | glycan array binding signal (z-score) [32]: -0.616 | glycan array binding signal (z-score) [33]: -0.344 | glycan array binding signal (z-score) [34]: -0.416 | glycan array binding signal (z-score) [35]: -0.625 | glycan array binding signal (z-score) [36]: -0.465 | glycan array binding signal (z-score) [37]: -0.085 | glycan array binding signal (z-score) [38]: -0.392 | glycan array binding signal (z-score) [39]: -0.238 | glycan array binding signal (z-score) [40]: 0.038 | glycan array binding signal (z-score) [41]: -0.669 | glycan array binding signal (z-score) [42]: -0.574 | glycan array binding signal (z-score) [43]: -0.648 | glycan array binding signal (z-score) [44]: 1.56 | glycan array binding signal (z-score) [45]: 0.255 | glycan array binding signal (z-score) [46]: -0.128 | glycan array binding signal (z-score) [47]: -0.639 | glycan array binding signal (z-score) [48]: -0.228 | glycan array binding signal (z-score) [49]: -0.267 | glycan array binding signal (z-score) [50]: -0.629 | glycan array binding signal (z-score) [51]: -0.682 | glycan array binding signal (z-score) [52]: -0.495 | glycan array binding signal (z-score) [53]: -0.517 | glycan array binding signal (z-score) [54]: 0.631 | glycan array binding signal (z-score) [55]: -0.471 | glycan array binding signal (z-score) [56]: -0.245 | glycan array binding signal (z-score) [57]: -0.57 | glycan array binding signal (z-score) [58]: -0.537 | glycan array binding signal (z-score) [59]: -0.499 | glycan array binding signal (z-score) [60]: -0.314
